Hit rate of the full screen: of about 360,000 compounds, about 25,000 (6.9%) were called active. Inconclusive means that the source gave no clear call. Such entries were picked first, then a sample of the others. The call rests on the fitted dose curve; in most records, active means well fitted inhibition curve with a large enough effect; inconclusive means small, poorly fitted or top-dose-only effect; inactive means flat fitted curve, though single readings scatter. Where the call is inconclusive, the potency comes from a doubtful curve fit.
Molecular target: Luciferin 4-monooxygenase (Photinus pyralis) (UniProt P08659)
Assay: qHTS profiling assay for firefly luciferase inhibitor/activator using purifed enzyme and Km concentrations of substrates (counterscreen for miR-21 project); further: nearly all actives have a fitted effect of over 55% in size
Details: purified FLuc, luminescence inhibition; series mostly up to 57.5 µM
Summary of the method: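 Purified P. pyralis luciferase, 10 nM final, with Km-level 10 uM D-luciferin and 10 uM ATP in 50 mM Tris acetate pH 7.5, 10 mM Mg acetate, 0.01% Tween-20, 0.05% BSA; 6-point qHTS titration about 60 µM downward; luminescence read.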
Potency means the concentration at half of the fitted maximal effect; tags describe the fitted curve by direction and shape.

UniProt P08659, sequence (P08659 whole entry, looked up): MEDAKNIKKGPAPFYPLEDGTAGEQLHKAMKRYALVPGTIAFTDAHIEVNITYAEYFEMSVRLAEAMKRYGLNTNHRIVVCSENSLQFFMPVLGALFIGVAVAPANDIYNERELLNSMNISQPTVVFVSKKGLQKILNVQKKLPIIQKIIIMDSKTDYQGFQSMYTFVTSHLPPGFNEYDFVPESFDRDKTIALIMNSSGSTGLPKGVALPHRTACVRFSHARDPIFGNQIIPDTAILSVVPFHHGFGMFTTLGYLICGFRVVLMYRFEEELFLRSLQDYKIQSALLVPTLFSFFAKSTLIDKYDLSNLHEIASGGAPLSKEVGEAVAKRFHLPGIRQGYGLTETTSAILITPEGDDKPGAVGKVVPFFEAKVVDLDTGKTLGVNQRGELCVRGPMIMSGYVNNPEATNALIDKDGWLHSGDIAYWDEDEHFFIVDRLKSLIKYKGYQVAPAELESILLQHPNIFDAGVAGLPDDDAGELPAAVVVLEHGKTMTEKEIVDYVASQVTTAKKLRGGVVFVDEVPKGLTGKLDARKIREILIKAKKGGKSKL

Row | SMILES | Potency
1 | CN(C)c1ccc(N=Cc2ccco2)cc1 | active: 4.78 µM
2 | O=C(CSc1ccc(-c2ccccc2)nn1)c1ccccc1 | active: 16.9 µM
3 | CCOC(=O)C1CCCN(C(=O)c2ccc(Cn3c(=S)[nH]c4cc(C(=O)OC)ccc4c3=O)cc2)C1 (stereo unspecified) | inconclusive: 21.3 µM [inhibitor, single point]
4 | COc1ccccc1NC(=O)NC(=O)N(C(C)C)S(C)(=O)=O | inconclusive: 21.3 µM [inhibitor, single point]
5 | O=C(NC1CCN(S(=O)(=O)c2ccc(F)cc2)CC1)c1ccccc1 | inactive
6 | COc1cc(SC)ccc1C(=O)Nc1ccccc1 | active: 6.75 µM
7 | Cc1cccc(CCNC(=O)c2cnc3c(C)cccn3c2=O)c1 | active: 4.26 µM
8 | Cc1ccccc1-n1c(C)cc(/C=N/Nc2ccc([N+](=O)[O-])cn2)c1C | inconclusive: 2.39 µM [inhibitor, partial curve, poor fit]
9 | Cc1ccc(CNC(=O)c2ccc3c(c2)N(Cc2ccccc2)C(=O)c2ccccc2S3(=O)=O)cc1 | inactive
10 | COc1ccc(OCC(O)COc2ccc(OC)cc2)cc1 | inconclusive: 21.3 µM [inhibitor, single point]
11 | COc1ccccc1CNC(=O)Cc1csc2nc(-c3ccccc3)cn12 | inconclusive: 13.5 µM [inhibitor, partial curve, poor fit]
12 | Cc1c(C)c2ccc(OCC(=O)N(C)C)c(C)c2oc1=O | inactive
13 | CN(c1ccccc1)S(=O)(=O)c1cccc(NC(=O)CSc2nnc(N)s2)c1 | inconclusive: 23.9 µM [inhibitor, partial curve, poor fit]
14 | O=C(CCC1N=C2c3ccccc3N=C(SCc3ccccc3F)N2C1=O)NCCc1ccccc1 (stereo unspecified) | inactive
15 | CCc1c(C)[nH]c2ccc(C)cc2c1=O | inconclusive: 26.9 µM [inhibitor, partial curve, poor fit]
16 | Cc1c(N=Nc2ccc(N(C)C)cc2)c(=O)n(-c2ccccc2)n1C | inconclusive: 26.9 µM [inhibitor, single point]
17 | COc1cc2[nH]c(=O)n(Cc3ccc(C(=O)N4CCN(c5cc(Cl)ccc5C)CC4)cc3)c(=O)c2cc1OC | inactive
18 | CCN(CC(=O)Nc1ccc(OC)cc1)C(=O)CSCC(=O)Nc1cc(C)on1 | inactive
19 | O=C(O)CCSc1nnc(COc2cccc3ccccc23)n1-c1cccc(Cl)c1 | inconclusive: 37.9 µM [inhibitor, partial curve, poor fit]
20 | Cc1[nH]n(-c2ccccc2)c(=O)c1/C=N/NC(=O)c1ccoc1C | active: 21.3 µM
21 | CCOC(=O)CSc1nc2ccc(NC(C)=O)cc2s1 | inconclusive: 37.9 µM [inhibitor, partial curve, poor fit]
